For one molecule, Kd results are on record in PMC3742252 (2013).

The assay has as its target Thyroid-stimulating hormone (bTSH-biotin) (Bos taurus, UniProt P01217). The experiment in a line: Scatchard analysis of saturation binding (chemiluminescence, AP-streptavidin).

B1: Thyroid-stimulating hormone receptor (Mms13-hTSHR on BacMPs) (protein)
chain: not shown
modifications: Mms13 N-terminal fusion and C-terminal FLAG tag on TSHR displayed on bacterial magnetic particles; biotin-labeled TSH
As usually defined, the Kd is a measure of binding affinity in units of concentration. Higher therefore signals a looser complex. Take B1: the dissociation constant (Kd) stood at 190 nM.
